# Experimental data from publication PMC4336329 (PLoS ONE, 2015).
# Among all 310,000 compounds or so, about 14,000 (4.5%) showed an effect of 50% or more. Effects have a minus sign here. This is one part of the list.
# Target: human ether-à-go-go-related gene (hERG) potassium channel (human, UniProt Q12809)
# Assay: primary screen, population patch clamp on CHO cells stably expressing hERG
# 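Further: peak tail current of the secondary pulse compared with the same well before compound.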
# Chain of human ether-à-go-go-related gene (hERG) potassium channel (Q12809 whole entry, looked up): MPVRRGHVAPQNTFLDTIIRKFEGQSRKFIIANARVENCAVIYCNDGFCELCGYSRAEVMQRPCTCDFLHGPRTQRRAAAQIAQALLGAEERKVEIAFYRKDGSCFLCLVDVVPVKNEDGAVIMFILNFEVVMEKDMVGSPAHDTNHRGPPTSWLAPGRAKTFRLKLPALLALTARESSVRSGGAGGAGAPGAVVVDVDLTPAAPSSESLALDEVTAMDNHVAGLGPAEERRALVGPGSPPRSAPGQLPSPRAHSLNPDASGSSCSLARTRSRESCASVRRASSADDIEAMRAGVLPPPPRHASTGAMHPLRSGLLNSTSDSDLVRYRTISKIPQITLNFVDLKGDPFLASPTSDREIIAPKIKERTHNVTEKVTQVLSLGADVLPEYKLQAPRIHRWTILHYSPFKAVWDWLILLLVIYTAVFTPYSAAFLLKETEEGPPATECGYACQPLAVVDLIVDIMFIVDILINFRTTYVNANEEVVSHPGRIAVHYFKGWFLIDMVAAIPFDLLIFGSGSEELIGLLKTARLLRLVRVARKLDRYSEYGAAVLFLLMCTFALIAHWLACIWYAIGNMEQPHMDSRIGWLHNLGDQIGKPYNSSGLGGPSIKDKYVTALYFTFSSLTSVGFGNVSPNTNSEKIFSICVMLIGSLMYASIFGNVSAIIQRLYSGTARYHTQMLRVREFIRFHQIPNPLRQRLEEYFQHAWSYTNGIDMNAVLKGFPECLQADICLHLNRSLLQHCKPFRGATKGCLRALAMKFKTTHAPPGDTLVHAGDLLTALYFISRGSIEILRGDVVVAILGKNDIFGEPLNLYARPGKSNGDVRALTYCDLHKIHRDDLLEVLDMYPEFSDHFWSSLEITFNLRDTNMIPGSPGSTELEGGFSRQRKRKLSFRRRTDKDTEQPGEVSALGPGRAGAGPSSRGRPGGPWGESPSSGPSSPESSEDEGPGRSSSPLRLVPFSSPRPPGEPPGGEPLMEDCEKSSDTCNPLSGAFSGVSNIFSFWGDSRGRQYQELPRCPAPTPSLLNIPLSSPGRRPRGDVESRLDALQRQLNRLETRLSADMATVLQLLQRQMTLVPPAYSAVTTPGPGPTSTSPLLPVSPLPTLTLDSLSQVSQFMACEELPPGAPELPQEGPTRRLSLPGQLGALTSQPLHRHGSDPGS
row,SMILES,"hERG current change (%, negative = inhibition) at 10uM [%]"
1,O=C(NNC(=O)c1ccc([N+](=O)[O-])o1)c1ccccc1,-6.59
2,CC1(C)CN(c2cccc(C#N)c2)C1=O,26.5
3,CCC(C)C(NS(=O)(=O)c1ccc(C)cc1)C(=O)N1CCOCCOCCOCC1 (centres unmarked),8.49
4,COc1cccc(OC)c1OCCCOc1ccc([N+](=O)[O-])cc1Cl,24.2
5,Cc1ccccc1OCCNC(=O)c1ccccc1Sc1ccccc1C#N,-4.06
6,C=CCNC(=S)N1CCN(CCN=Cc2c(C)[nH]n(-c3ccc([N+](=O)[O-])cc3)c2=O)CC1,-72.1
7,CCCCNC(=O)NS(=O)(=O)c1ccc(C(=O)OC(C)C)o1,24.2
8,CC1CCN(CC(=O)Nc2ccc(S(=O)(=O)N3CCCC(C)C3)cc2)CC1 (centres unmarked),11.1
9,Cc1ccc(CSc2nc3c(c(=O)[nH]2)C(c2ccncc2)C2=C(CCCC2=O)N3)cc1 (centres unmarked),9.42
10,CCOc1cc(-c2nc3c(C)cccn3c2NCC2CCCO2)ccc1O.CNC.Cl (centres unmarked),-43.9
11,O=C(Nc1ccccc1)c1ccco1,15
12,Cc1ccc(Sc2ccc(CN3CCCC3)cc2[N+](=O)[O-])cc1,-83
13,CCc1ccc(-c2nc(CSCC(=O)NC3CC3)c(C)o2)cc1,-20.6
14,Cc1noc(NS(=O)(=O)c2ccc(NC(=O)c3cc(=O)c4ccccc4o3)cc2)c1C,-9.46
15,COc1ccc(S(=O)(=O)N2CCCC2C(=O)Nn2cnnc2)cc1 (centres unmarked),18.2
16,Cc1ccccc1NC(=O)/C(C#N)=C/c1ccsc1,4.32
17,CC(=O)c1ccc(N2CCN(C(=O)c3cc(-c4ccncc4)nc4ccc(Br)cc34)CC2)cc1,-42
18,CSc1ccc(/C=C/C(=O)OCC(=O)NC(C)C)cc1,10.6
19,O=C(/C=C/c1cccc([N+](=O)[O-])c1)NCCSCc1ccco1,-29.5
20,COCc1cc(C)nc(NCCO)c1C#N,4.28
21,COc1ccccc1C(=O)O/N=C(/C)c1ccc(N2C(=O)C3CCCCC3C2=O)cc1 (centres unmarked),7.57
22,CC(C)C(c1nnnn1Cc1cccs1)N1CCN(C2CCCC2)CC1 (centres unmarked),-30.9
23,CCCN1CCC(=O)N(CCSc2ccc(OC)cc2)CC1,-45.4

row,SMILES,"hERG current change (%, negative = inhibition) at 10uM [%]"
1,CCOc1ccc(CCNC(=O)C2CSC3(C)CCC(=O)N23)cc1OCC (centres unmarked),18.5
2,C[C@H](NC(=O)N1CCC(Cc2ccccc2)CC1)C(=O)O,15.5
3,Cc1ccc(S(=O)(=O)Nc2ccc3cn[nH]c3c2)cc1,-15.8
4,Cc1nc2ccccc2c(=O)n1-c1cccc(O)c1,14.1
5,O=C(N/N=C/c1cccc2nccnc12)c1ccncc1,0.676
6,CC(C)(C)NC(=O)C(c1cccs1)N(C(=O)c1csnn1)c1cccc(F)c1 (centres unmarked),-7.68
7,Cc1ccc(OCc2cc(C(=O)N(C)CCc3ccccn3)no2)cn1,8.86
8,O=C(O)C1C2CCC(C2)C1C(=O)Nc1ccc(Cl)c(Cl)c1 (centres unmarked),5.43
9,C=CCc1ccc(OCCCCNC(C)CC)c(OC)c1.O=C(O)C(=O)O (centres unmarked),-39.3
10,O=C(COC(=O)c1cc[n+]([O-])cc1)Nc1ccc(Cl)cc1[N+](=O)[O-],15.6
11,CCOc1ccccc1N1CCN(Cc2c(C)n(C)n(-c3ccccc3)c2=O)CC1,-20.5
12,O=S(=O)(c1cccc(Br)c1)N1CCN(c2ccnc3cc(Cl)ccc23)CC1,8.43
13,CS(=O)(=O)N(CC(=O)N1CCCCC1)c1ccc(Cl)c(C(F)(F)F)c1,-3.01
14,COc1ccc(C2(O)C(=O)Nc3ccc(C)cc32)cc1OC (centres unmarked),12.8
15,Cn1c(=O)c(C(=O)CSc2nnc(Nc3ccccc3)s2)c(N)n(Cc2ccccc2)c1=O,14.1
16,Cc1ccc(NC(=O)C2CC(=O)Nc3ncnn32)cc1Cl (centres unmarked),-0.0498
17,O=S(=O)(c1ccc(Br)cc1)N1CCn2c(nc3ccccc32)C1,-7.4
18,O=C(Nc1ccc2nc(SCc3ccc(Cl)cc3)sc2c1)c1ccccc1C(=O)N1CCOCC1,21.9
19,Cc1ccc(S(=O)(=O)N2CCCCC2)cc1NC(=O)CSc1ccc2c(c1)OCCO2,-9.32
20,CSc1nc(C)c2c(n1)N(c1ccc(C(F)(F)F)cc1)CC2,-3.22
21,Cc1ccc(C(=O)Nc2ccc(F)cc2F)o1,6.04
22,CCCC(=O)N1CCC(CCC(=O)NC2CC2)CC1,7.63
23,CC(C)C(C(=O)NC1CCCC1)N(Cc1ccco1)C(=O)CNS(=O)(=O)c1ccccc1 (centres unmarked),26.3

row,SMILES,"hERG current change (%, negative = inhibition) at 10uM [%]"
1,Cc1cc(NC(=O)Nc2cccc(Cl)c2)n(-c2ccccc2)n1,18.7
2,CCc1ccc(CCC(=O)Nc2ccc(C(=O)O)cc2)o1,10.2
3,CC(=O)N1CCC(N(CCN2CCOCC2)C(=S)Nc2c(C)cccc2C)CC1,8.51
4,Cc1ccc(N=Nc2c(=O)[nH]n3c(=O)cc(C)[nH]c23)cc1,22.3
5,O=[N+]([O-])c1ccc(N2CCSCC2)cc1O,9.32
6,CCOC(=O)c1c(NC(=S)N2CCOCC2)sc2c1CCN(C(=O)OCC)C2,-1.31
7,COc1cccc(CNC(=O)Cc2csc(NC(=O)Nc3ccccc3OC)n2)c1,10.6
8,Cc1cccc(Oc2ccc(C(=O)NC3CCSC3=O)cn2)c1C (centres unmarked),-2.02
9,Cl.Fc1ccc(COc2ccc(Br)cc2CNCC2CCCO2)cc1 (centres unmarked),-63.5
10,CCCc1ccc(OCC(=O)NNC(=O)c2cccnc2)cc1,-10.9
11,CC1(C)Cc2cccc(OCC(=O)OCc3nnc(-c4ccccc4)o3)c2O1,-7.37
12,COc1cccc(N2CCN(S(=O)(=O)c3ccc(CN4C(=O)c5cccnc5C4=O)cc3)CC2)c1,21.3
13,COc1ccc(CNC(=O)c2sc3nc4c(c(C(F)(F)F)c3c2N)CCC4)cc1OC,10.2
14,S=c1[nH]nc(Cc2ccccc2)n1-c1cccc2ccccc12,-1.43
15,CCSc1nnc(NC(=O)CCNS(=O)(=O)c2cc(Br)cnc2N)s1,0.00778
16,C/C(=N\NS(=O)(=O)c1ccc(Cl)cc1)c1ccc(O)cc1,-25.9
17,CCC(C)NS(=O)(=O)c1ccc(OCC(=O)Nc2ccc3c(c2)OCO3)cc1 (centres unmarked),6.02
18,O=C(NC(NC(=S)N1CCOCC1)C(Cl)(Cl)Cl)c1ccc(Cl)cc1 (centres unmarked),-28.5
19,O=S(=O)(c1ccccc1)c1cnn(-c2ccccc2)c1-c1ccc(Cl)cc1,-0.722
20,CSCCC(NC(=O)COc1ccccc1)C(=O)N1CC(C)OC(C)C1 (centres unmarked),-8.31
21,COc1ccc(CNC(=O)c2ccc(Br)o2)cc1,1.82
22,Cn1nc(SCC(=O)O)sc1=S,-3.5
23,CCCCn1nnnc1SCC(=O)NNC(=O)C1CCCCC1,-1.79

row,SMILES,"hERG current change (%, negative = inhibition) at 10uM [%]"
1,NS(=O)(=O)c1ccc(CCNC(=O)/C=C/c2ccc([N+](=O)[O-])cc2)cc1,-69.8
2,CCN1CCN(c2ccc(S(=O)(=O)N3CCCCC3)cc2NC(=O)/C=C/c2ccc(OC)c(OC)c2)CC1,-31.4
3,CCN1C(=O)C(CC(=O)Nc2ccccc2)S/C1=N\c1ccccn1 (centres unmarked),15
4,CC1CCN(CCCn2c(=S)[nH]c3ccc(N4CCOCC4)cc3c2=O)CC1,-18.3
5,CCOc1cc(C2C(C#N)=C(N)SC(N)=C2C#N)ccc1OCCN1CCOCC1,-1.44
6,CCCCSC1=NN1c1nc(N)nc(C)c1CC,-25.8
7,Cc1ccc(CNc2cc(C(=O)O)ccc2Cl)s1,11.9
8,CCOc1cc2c(C#N)c(N3CCNCC3)nc(N)c2c(N)n1,5.41
9,O=C1CCC(=O)N1c1ccccc1,20.8
10,CCC(N=c1cc(-c2ccc(OC)cc2)oc2ccc(C)cc12)C(=O)O (centres unmarked),-74.4
11,CC(C)C12CN3CC(C(C)C)(CN(C1)C3(C)C)C2=O,13.4
12,COc1ccccc1C(=O)COC(=O)COc1cccc2c1OC(C)(C)C2,17.3
13,CCc1ccc(OS(=O)(=O)c2cn(C)c(=O)n(C)c2=O)cc1,4.65
14,CCOC(=O)C1CCCN(C(=O)c2cc(S(=O)(=O)N(C)C)ccc2N2CCCC2)C1 (centres unmarked),-0.17
15,CCCc1cc(=O)oc2cc(C)cc(OC(C)C(=O)NCc3ccncc3)c12 (centres unmarked),-69.5
16,COC(=O)c1ccc(C)c(NC(=O)CSc2nc3[nH]c(=O)cc(O)c3s2)c1,32.4
17,CC(=O)n1cc([C@@H]2C=C(C(=O)NCc3ccccc3)O[C@H](OCCCCO)C2)c2ccccc21,-78.3
18,Cc1ccc(NC(=O)CCNC(=O)c2ccc(Cl)cc2)cc1F,9.19
19,CC(=O)C1=C(O)C(=O)N(c2ccc(Br)cn2)C1c1ccccc1[N+](=O)[O-] (centres unmarked),20.2
20,CC(Cc1cccs1)NC(=S)Nc1ccccc1 (centres unmarked),-17
